Assay results reported in the supplement of paper PMC3334620.
In all, about 33,000 sequences were measured (“E-score (-0.5 to 0.5)”: median about -0.017, highest 2% from about 0.3 on). Some of the results follow.

target: T1, Sut1 (UniProt P53032); experiment: PBM E-score (8-mer binding enrichment) (E-score (-0.5 to 0.5)); higher = stronger / more preferred TF binding; most listed sequences are background and not binding sites; settings: protein concentration: 200 nM; construct: GST-full length
T1 sequence: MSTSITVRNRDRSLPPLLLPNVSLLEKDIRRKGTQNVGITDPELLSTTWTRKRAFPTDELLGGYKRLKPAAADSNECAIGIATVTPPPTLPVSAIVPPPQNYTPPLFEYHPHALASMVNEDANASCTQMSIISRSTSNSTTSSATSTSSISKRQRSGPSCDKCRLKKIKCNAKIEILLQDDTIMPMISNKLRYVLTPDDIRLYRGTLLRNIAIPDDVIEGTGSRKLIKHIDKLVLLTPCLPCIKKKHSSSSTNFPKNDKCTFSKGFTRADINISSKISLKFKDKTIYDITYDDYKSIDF
How it was run: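 Universal all-10-mer Agilent arrays, double-stranded by primer extension on fresh or once-stripped slides, were probed with about 100-200 nM GST-tagged yeast transcription factors made by PURExpress. Fluorescent anti-GST detected bound protein, and masliner normalised the scans. E-scores from the Universal PBM Analysis Suite were given to each ungapped eight-base word pooled with its reverse complement.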

Sequence	PBM E-score
AAGGGCGT	-0.146
CACTCTCG	-0.0481
ACCGAGAT	0.26
TGATTAAA	0.242
ACAGGCTA	-0.245
ATTTTAAG	0.212
CTAAACTA	0.0672
CATCGCCC	-0.251
CGTGATAG	-0.0575
CATTACCC	0.0462
CGGTTACA	0.14
TCGAATAA	0.061
CGCCCAAG	-0.248
CTCGGTCC	0.0345
CCAGACAC	-0.186
CCCGTTTC	0.00582
ATGAACAT	0.2
CAAACTAG	0.0325
AGGTGCCC	-0.201
CAGGATAG	0.051
AGAAAGAG	0.123
ATCTTGGC	-0.067
GAACAGTC	0.0217
AAGTAATC	0.207

Sequence	PBM E-score
ATTCTCGC	-0.362
CAAGGTCA	-0.257
AGTGAAAG	0.128
CCATGCCA	-0.291
GATACGTA	-0.057
ATCTTTCC	0.193
ATGTGTGA	0.0337
AACATATC	0.21
GCTCGGGA	-0.0428
CGGGAGAC	0.132
ACAGGGCG	-0.0919
CACACTCC	0.158
TCCAGGGA	-0.276
AAGGGCGA	-0.173
AGGAGCTG	-0.247
ATCCCGTG	-0.119
CCTGTCAA	-0.085
ACTCAGGC	-0.0895
GTTATGTA	0.115
AGCACCCT	-0.184
GGCATGGA	-0.203
ATCCATTG	0.0348
CTGAATGC	-0.182
AGCGCCAG	-0.0984

Sequence	PBM E-score
ATTAGCCC	0.0147
ATGCCTGA	-0.143
GTCCTTCA	-0.0969
CTCCCAAG	-0.192
CGACAATA	0.153
AGATTGCC	-0.043
CATCCGTC	0.0853
GTGATACA	-0.064
TCGCATAA	0.247
CACTCGGG	-0.0411
CCCCAGCG	-0.296
TACCCCAA	-0.0514
AAACCCTG	-0.095
CATACAAA	0.264
AACGAGAC	-0.0364
AAAATTAG	0.155
AGGTGCTG	-0.044
AATACAGT	0.163
GACCTGCA	-0.0862
ACATACAA	0.189
CGAACGTC	-0.168
AAAGGGTT	0.0671
AAGTTTAA	0.0927
CTCACGTA	-0.0939

Sequence	PBM E-score
ATCATTTA	0.283
GGAAGCAA	0.00081
GACACGGC	-0.0171
CATAAGGC	-0.065
ATTGCGCG	0.00102
TCGCAGCA	-0.166
CCAGATTC	-0.218
CACGCCCG	-0.0449
ATGTGGAG	0.103
GAATGCCC	-0.356
GAAACATC	-0.0285
AAAGATAT	0.219
ACCTAATC	0.192
AGTAGAGG	-0.308
GCCACGAC	0.0627
AGTTACGC	-0.0245
TAACTGTA	0.176
CTGACCAG	-0.211
AGCGAGAG	0.0844
ATAGACGG	0.117
AGGTGATG	-0.295
GAAAGGAA	0.0308
